# Source: PubChem BioAssay AID1963576 (National Center for Advancing Translational Sciences (NCATS), 2024)
# About 60 (0.1%) of roughly 46,000 compounds were called active. About 3% were inconclusive and are not listed. The call rests on the fitted dose curve; in most records, active means well fitted inhibition curve with a large enough effect; inconclusive means small, poorly fitted or top-dose-only effect; inactive means no such curve, though single readings can be large or run the other way. The list shows a part of the results.
# Assay: Primary qHTS assay for Inhibitors of ovarian cancer metastasis using an organotypic tumor microenvironment (TME) model. Further: nearly all actives have a fitted effect of over 65% in size.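 On activity change, negative = inhibition: plate controls were DMSO wells for no effect and tomatine positive control wells for full effect.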
# Conditions: SKOV3ip1-GFP adhesion/invasion on 3D omental model, fluorescence; series mostly up to 45.8 µM; activity change, negative = inhibition: at the top concentration
# Summary of the method: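 A 3D layer of primary human omental fibroblasts, mesothelial cells, fibronectin and collagen I, grown 48 hr, received SKOV3ip1-GFP cells in serum-free medium plus compounds at 0.36-46 umol/L. After 2 hr RT and 16 hr 37 C, fixed adherent GFP cells were counted; normalized to DMSO and tomatine.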
Structure (SMILES),"activity change, negative = inhibition",outcome
CC[C@H]1C=CC=CC[C@@H](C)[C@H](O)[C@@](C)(O)C(=O)[C@@H](C)[C@H](O)[C@@H](C)C(=O)[C@@H](C)[C@H](O)[C@@H](C)C=CC(=O)O[C@@H]2[C@@H](C)[C@H](CC1)O[C@]1(CC[C@H](C)[C@H](C[C@@H](C)O)O1)[C@H]2C,inactive: -5.55%,
COc1ccc(C)cc1NC(=O)c1cccn(Cc2ccccc2Cl)c1=O,inactive: -8.24%,
Cc1ccc(-n2c(/C=C/c3cc(Br)cs3)nc3ccccc3c2=O)cc1C,inactive: 2.96%,
C[C@@H]1O[C@@H](O[C@@H]2C=C3CC[C@@H]4[C@@H](CC[C@]5(C)[C@H](c6ccc(=O)oc6)CC[C@@]45O)[C@@]3(C)CC2)[C@H](O)[C@H](O)[C@H]1O,inactive: -10.7%,
C#C[C@]1(O)C=C[C@@H]2[C@@H]3CCC4=CC(=O)CC[C@@H]4[C@H]3CC[C@@]21CC,inactive: -4.28%,
Cc1cccc(C)c1NC(=O)CN1CCCC1=O,inactive: 3.3%,
O=C(COc1ccccc1[N+](=O)[O-])N1CCN(CCc2ccncc2)CC1,,inactive
Cc1cccc(C)c1OCC(=O)Nc1ccc(Cl)cc1C(=O)c1ccccc1,inactive: 7.76%,
Cc1ccc(CNC(=O)CCCn2c(=O)c3sccc3n(CC(=O)Nc3c(C)cccc3C)c2=O)cc1,inactive: -4.83%,
Cc1nc(-c2ccc(-c3ccc(C(=O)N4CCc5cc6c(cc54)C4(CCN(C)CC4)CO6)cc3)c(C)c2)no1,inactive: -4.37%,
CC(C)c1cccc(C(C)C)c1O,inactive: -13.9%,
COc1ccc(NC(=O)CCc2nc(C3=CCN(Cc4cccc(C)c4)CC3)no2)c(OC)c1,,inactive
Cc1cc(OCC(=O)N2CCN(CCc3ccncc3)CC2)cc(C)c1Cl,inactive: -7.12%,
CN[C@@H]1Cc2cccc3[nH]c(=O)n(c23)C1,inactive: -8.45%,
COc1ccc(OC)c(CCNCc2c(C(=O)O)c(C)n(Cc3ccc(F)cc3Cl)c2C)c1,inactive: -0.147%,
Cc1ccc(Cn2cccc(C(=O)Nc3ccc(C)c(Cl)c3)c2=O)cc1,inactive: -12.5%,
O=[N+]([O-])c1ncc[nH]1,inactive: -16.6%,
COC[C@H]1OC(=O)c2coc3c2[C@@]1(C)C1=C(C3=O)[C@@H]2CC[C@H](O)[C@@]2(C)C[C@@H]1OC(C)=O,inactive: 5.92%,
COc1ccc(C2CC(=O)Oc3c2c(=O)oc2ccccc32)c(OC)c1OC (stereo not given),inactive: 2.29%,
Cc1cccc(-n2c(/C=C\c3cccc(Br)c3)nc3ccccc3c2=O)c1,inactive: -9.95%,
COc1ccccc1CN1CCN(C(=O)COc2cccc(C)c2)CC1,inactive: -2.01%,
COc1ccc(NC(=O)CN2C(=O)CN=C(c3ccccc3)c3ccccc32)c(OC)c1,inactive: -2.17%,
Cc1ccccc1-n1nc(C)c2c1NC(=O)CSC2c1ccccc1C(F)(F)F (stereo not given),inactive: 3.66%,

Structure (SMILES),"activity change, negative = inhibition",outcome
C=CCON=C(C[C@H]1O[C@@H]2O[C@]3(C)CC[C@@H]4[C@H](C)CC[C@@H]([C@H]1C)[C@@]24OO3)[C@H]1O[C@@H]2O[C@]3(C)CC[C@H]4[C@H](C)CC[C@@H]([C@@H]1C)[C@@]24OO3,inactive: -3.11%,
COc1ccc2c(c1OC)CN1CCc3cc4c(cc3C1C2)OCO4 (stereo not given),inactive: -20.2%,
Cc1oc2cc3oc(=O)c(CCC(=O)N4CCCCC4)c(C)c3cc2c1C,inactive: 9.5%,
CNC(=O)c1ccc(N2C(=S)N(c3ccc(C#N)c(C(F)(F)F)c3)C(=O)C23CCC3)cc1F,inactive: -6.48%,
CCOc1ccc(CN(CCc2ccc3c(c2)OCO3)Cc2ccc(CC)cc2)cc1,inactive: -8.69%,
O=C(Nc1nc2ccccc2s1)c1cccn(Cc2ccccc2)c1=O,,inactive
Cc1cccc(OC(C)C(=O)NCC2(N(C)C)CCCCC2)c1C (stereo not given),inactive: -23.4%,
Cc1nnc(NC(=O)c2cccn(Cc3ccccc3)c2=O)s1,inactive: -19.2%,
O=C(COc1ccccc1Cl)N1CCN(CCc2ccccn2)CC1,inactive: 1.24%,
CCOc1ccc(CN(CCc2ccc3c(c2)OCO3)Cc2cccc(Br)c2)cc1,inactive: -29.6%,
CC(C)[C@]12O[C@@H]1[C@@H]1O[C@]13[C@]1(O[C@H]1C[C@@H]1C4=C(CC[C@@]13C)C(=O)OC4)[C@H]2O,inactive: -2.37%,
COc1ccc(CC2NCCc3cc(OC)c(OC)cc32)cc1OC (stereo not given),inactive: -17.1%,
CCCCCC[C@H]1C(=O)O[C@H](C)[C@H](NC(=O)c2cccc(NC=O)c2O)C(=O)O[C@@H](C)[C@@H]1OC(=O)CC(C)C,inactive: -2.71%,
CC(=O)c1ccc(NC(=O)c2sc3nc4c(cc3c2N)N2CCC4CC2)cc1,,inactive
COc1cc2cc(c1Cl)N(C)C(=O)C[C@H](OC(=O)C(C)C)[C@]1(C)O[C@H]1[C@H](C)[C@@H]1C[C@@](O)(NC(=O)O1)[C@H](OC)C=CC=C(C)C2,inactive: 5.91%,
Cc1ccc(-n2c(/C=C/c3ccccc3)nc3ccccc3c2=O)cc1C,,inactive
CCOC(=O)Nc1ccc(NCc2ccc(F)cc2)cc1N,inactive: -7.24%,
C[C@@H]1C[C@@H]([C@H](O)CC2CC(=O)NC(=O)C2)C(=O)[C@@H](C)C1,inactive: -11.5%,
Cc1ccc2scc(N3CCN(C)CC3)c(=O)c2c1,inactive: -6.88%,
Cc1cccc(-n2c(/C=C/c3cccc4ccccc34)nc3ccccc3c2=O)c1,inactive: -3%,
CCSc1nnc(NC(=O)c2cccn(Cc3ccc(Cl)cc3)c2=O)s1,inactive: -8.24%,
CCOc1ccc(CN2C(=O)c3ccccc3Sc3ccc(C(=O)N4CCC5(CC4)OCCO5)cc32)cc1,inactive: -7.07%,
